Drawing on PubChem BioAssay AID1240 (Sanford-Burnham Center for Chemical Genomics, 2008), this text covers displacement for 113 compounds.

In all, about 50,000 compounds went through this assay and about 800 (1.6%) showed an effect of 50% or more. Some of the results follow.

The assay concerns the target Bcl-2-like protein 10 (Homo sapiens) (UniProt Q9HD36). The assay can be described thus: TR3 peptide-Bcl-B binding displacers, biochemical primary FP assay, phenotype converters (AID 1240).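 Note: 0% = Bcl-B with tracer peptide and DMSO and 100% = tracer peptide lacking Bcl-B.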 The following applies: GST-Bcl-B / FITC-TR3 peptide fluorescence polarization; stronger effect = higher value; compound at 3.75 mg/L.
Chain of UniProt Q9HD36 (Q9HD36 whole entry, looked up): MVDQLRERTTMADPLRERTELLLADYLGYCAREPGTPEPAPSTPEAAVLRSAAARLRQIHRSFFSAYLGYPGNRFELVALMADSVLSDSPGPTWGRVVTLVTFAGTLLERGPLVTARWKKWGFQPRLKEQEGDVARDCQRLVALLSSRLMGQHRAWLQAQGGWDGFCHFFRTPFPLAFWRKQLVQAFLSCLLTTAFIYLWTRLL
As to `O=C(CSc1ncn[nH]1)Nc1ccc(C(=O)O)cc1`, the displacement was 4.3%.

`CCCC1CCC(c2nc(-c3cccnc3)no2)CC1` (stereo not drawn): the displacement is -5.8%.

`COC(=O)NC(c1ccc(F)cc1)C(Cl)(Cl)Cl` (stereo not drawn): the displacement was 8.7%.

On to `CCC/C(O)=C1\C(=O)CC(C)(C)CC1=Nc1cccc2ccccc12`, for which the displacement came to 0.8%.

Regarding `CCN(CC)CCCCOc1c(C)cc(Cl)cc1Cl`, the displacement amounted to 7.2%.

On to `COc1ccccc1NC(=O)C1=C(C)NC(=O)NC1c1ccc(Cl)cc1` (stereo not drawn), for which the displacement amounted to 2.5%.

On to `CCc1ccc(-c2cc(C(=O)Nc3nccs3)c3ccccc3n2)cc1`, for which the displacement was 3.8%.

As for `Cc1cc(C)c(/C(O)=C/c2nc3ccccc3oc2=O)c(C)c1`, the displacement was determined as 13.8%.

Consider `CC(C)c1ccc(CNc2cc(N3CCN(S(=O)(=O)c4ccccc4)CC3)ccc2[N+](=O)[O-])cc1`, for which the displacement is 5.9%.

For the compound `COc1ccc(C2NC(c3ccc(OC)cc3)C3CCCC2C3=O)cc1` (stereo not drawn), the displacement is 10.6%.

`C=CCN1C(=O)/C(=C\c2c(OCC)ccc3ccccc23)C(=O)NC1=S`: the displacement worked out at 1.4%.

For the compound `O=C(O)c1ccc(NC(=O)c2ccc3ccccc3n2)cc1`, the displacement was determined as 9.5%.

As to `CCOC(=O)C1CCN(C(=O)c2cccc(F)c2)CC1`, the displacement is -8.4%.

Turning to `CCOC(=O)CCNC(=O)C(c1ccccc1)c1ccccc1`, the displacement came to 7.8%.

`NC(=O)c1ccccc1NS(=O)(=O)Cc1ccccc1`: the displacement was -0.2%.

Turning to `O=C(CSc1nc2ccccc2s1)c1ccc2ccccc2c1`, the displacement stood at 11.9%.

Consider `COc1cc(/C=N\n2c(C)nnc2C)cc(Br)c1O`, for which the displacement is -11.7%.

`O=C1N=C(SCC(=O)N2CCCc3ccccc32)NC(=O)C1c1ccccc1` (stereo not drawn): the displacement was -6.7%.

Regarding `O=C(O)c1ccccc1NS(=O)(=O)c1cccc2cccnc12`, the displacement is -3.5%.

For `Cc1cnnn1-c1cccc([N+](=O)[O-])c1`, the displacement is -4%.

`O=C(Nc1ccc(Nc2ccccc2)cc1)c1cccc(F)c1`: the displacement was 3.6%.

As to `CC(C)C(=O)Nc1cccc(S(=O)(=O)c2cccc(NC(=O)C(C)C)c2)c1`, the displacement turned out to be 5.8%.

For the compound `CCCOc1ccc(C(=O)Nc2cccc(C(=O)Nc3nccs3)c2)cc1`, the displacement is -10.4%.

In the case of `O=C(CN(c1ccc(Br)cc1)S(=O)(=O)c1ccccc1)NCCOc1ccccc1`, the displacement is -1.5%.

As to `COC(=O)c1ccccc1NC(=S)NC(NC(=O)c1ccc(F)cc1)C(Cl)(Cl)Cl` (stereo not drawn), the displacement came to 8.3%.

Consider `COc1ccc(C(=O)C2C(=O)c3ccccc3C2=Nc2ccccc2)cc1` (stereo not drawn), for which the displacement was 7.3%.

With `CCCCn1ccc(=O)c2c(C(F)(F)F)nccc21`, the displacement is 17.4%.

On to `CC1=C(C(=O)Nc2ccccc2C)C(c2ccc(F)cc2)NC(=O)N1` (stereo not drawn), for which the displacement was determined as 16.2%.

For the compound `CCOc1ccc(C2C3=C(CC(C)(C)CC3=O)OC3=C2C(=O)CC(C)(C)C3)cc1`, the displacement was -9.8%.

Regarding `Cc1cc(/C=N/O)c(C)n1-c1ccc(F)cc1`, the displacement amounted to 12.6%.

As to `O=C(/C=C/Nc1cccc(C(F)(F)F)c1)c1ccc(Br)cc1`, the displacement was determined as 4.6%.

With `COC(=O)C1=C(C)NC2=C(C(=O)CC(c3cccs3)C2)C1c1ccc(C)o1` (stereo not drawn), the displacement was 5.3%.

With `O=[N+]([O-])c1ccc(N2CCOCC2)cc1[N+](=O)[O-]`, the displacement was -4.6%.

For `O=C(NCc1ccccn1)c1ccc2c(c1)OCO2`, the displacement is -4.9%.

Take `CCOC(=O)CP(=O)(c1ccc(C)cc1)c1ccc(C)cc1`: the displacement was found to be 7.8%.

As for `O=C(Oc1cccc(-c2cnc3ccccc3n2)c1)c1cccc(S(=O)(=O)N2CCOCC2)c1`, the displacement was determined as 225%.

Turning to `Cn1cnnc1Sc1nc2c(c(=O)n(C)c(=O)n2C)n1Cc1ccc(F)cc1`, the displacement turned out to be 4.2%.

As to `CC(C)Oc1c(I)cc(I)cc1/C=C(/C#N)c1nc2ccccc2[nH]1`, the displacement amounted to 7.2%.

For `Cc1cccc(NC(=O)C2(c3ccccc3)CC2(Cl)Cl)c1C` (stereo not drawn), the displacement is 0.7%.

Turning to `Cc1cc(/C=C2/SC(=O)NC2=O)c(C)n1-c1ccc(N2CCOCC2)cc1`, the displacement is 11%.

`Cc1onc(-c2c(Cl)cccc2Cl)c1C(=O)Nc1nncs1`: the displacement was -16.8%.

As to `CCOc1ccc(N(CC(=O)Nc2cccc(Br)c2)S(=O)(=O)c2ccc(SC)cc2)cc1`, the displacement came out at 3.9%.

On to `O=C(N/N=C/c1cc(Br)ccc1O)NC12CC3CC(CC(C3)C1)C2`, for which the displacement was -1.7%.

Take `Cc1ccc(-c2nnc(SCC(=O)OC(C)C)o2)cc1`: the displacement was found to be 14.5%.

Take `Nc1nc2n(n1)C(C(F)(F)F)CC(c1ccco1)N2` (stereo not drawn): the displacement turned out to be 2.9%.

As to `COc1ccc(C2=C/C(=C\c3cccc(OC(C)=O)c3)C(=O)O2)cc1`, the displacement came to 25.4%.

With `Cc1cc(F)c(F)c(C(=O)N2CCOCC2)c1Cl`, the displacement is -7.4%.

With `CCCOC(=O)C1=C(C)NC2=C(C(=O)CC(C)(C)C2)C1c1cccc(F)c1` (stereo not drawn), the displacement was 6.9%.

As to `CCN(CC)S(=O)(=O)c1cc(C(=O)NC2CCCCC2)ccc1Cl`, the displacement is -6.6%.

As for `CCOc1ccc(NC(=O)CN(c2ccccc2CC)S(C)(=O)=O)cc1`, the displacement turned out to be 2.2%.

As for `O=C(Nc1cccc(Cl)c1)O/N=C\c1ccncc1`, the displacement was -4.2%.

As for `COc1cc(Cl)cc(/C=C2\C(=O)NC(=O)N(c3ccc(Br)c(C)c3)C2=O)c1O`, the displacement is -13.6%.

As for `O=C(Nc1cc(Cl)cc(Cl)c1)c1ccc(Br)o1`, the displacement is -13.8%.

On to `O=C(O)/C=C/C(=O)Nc1ccc(F)c(F)c1`, for which the displacement worked out at 6.2%.

As for `COc1ccc(C2=NN(C(C)=O)C(c3ccc([N+](=O)[O-])cc3)C2)cc1` (stereo not drawn), the displacement is 4.1%.

Turning to `O=c1/c(=C/c2ccc(-c3ccc([N+](=O)[O-])cc3Cl)o2)sc2nc3cc(Br)cnc3n12`, the displacement was -4.2%.

`Cc1ccc(-c2noc(/C=C/c3ccccc3)n2)cc1`: the displacement was determined as 2.9%.

Take `Cc1cc(C(F)(F)F)nn1CC(=O)Nc1ccc(Cl)cc1Cl`: the displacement is 0.7%.

`Cc1ccccc1OCCCCNCCO`: the displacement was -1.9%.

On to `C=CCn1c(=O)c(C(=O)Nc2cccc(C)c2)c(O)c2ccccc21`, for which the displacement is 14.5%.

For the compound `CC1=Nc2cc(-c3cccc(Br)c3)nn2C(=O)C1`, the displacement came to 6.6%.

For `COc1ccc(OC)c(/C=N/n2c(C)nc3ccccc3c2=O)c1`, the displacement was -9.7%.

As for `C=CCNC(=O)c1ccc(I)cc1`, the displacement came out at 5.2%.

As to `CCOc1ccc(S(=O)(=O)N(CC(N)=O)c2ccc(C)cc2)cc1`, the displacement turned out to be 5.1%.

On to `CCCCOc1cccc(C(=O)Nc2cccc(-c3nc4ccccc4o3)c2)c1`, for which the displacement is -49.2%.

Take `COc1ccc(NC(=O)c2ccc(OCC(C)C)cc2)cc1`: the displacement is 5.4%.

For the compound `O=C1OC(c2ccccc2)=C/C1=C/c1ccc2c(c1)OCO2`, the displacement is -0.2%.

With `CCOc1cc(C(=O)Nc2ccc(O)c(-c3nc4ccccc4s3)c2)cc(OCC)c1OCC`, the displacement came to 12.2%.

For the compound `COc1ccc(C2CC(C(F)(F)F)n3nc(C(=O)Nc4cc(OC)c(Cl)cc4OC)c(Cl)c3N2)cc1` (stereo not drawn), the displacement was 0.4%.

Consider `CSC(=Nc1ccc(C)cc1)Nc1ccc(C)cc1`, for which the displacement came to 4.7%.

Take `COc1ccc(OC)c(C=C2C(=O)N(C)C(=S)N(C)C2=O)c1`: the displacement is 12.2%.

On to `Fc1ccccc1OCCCCCN1CCCCC1`, for which the displacement was found to be 4.2%.

For `O=C1c2[nH]nc(-c3ccccc3)c2C(c2cccc(F)c2)N1c1ccccc1` (stereo not drawn), the displacement was -0.7%.

As for `COc1cc(C(=O)NCCCNc2ccc([N+](=O)[O-])cc2)cc(OC)c1OC`, the displacement amounted to 1.1%.

Turning to `Oc1ccccc1/C=N/Nc1nc(N2CCCC2)nc(N2CCCC2)n1`, the displacement is -3.1%.

Take `O=C1/C(=C/c2ccc([N+](=O)[O-])cc2)C=C(c2ccccc2)N1c1ccc(O)cc1`: the displacement came to 11.4%.

Take `Cn1c(N2C(=O)CC(Cc3ccccc3)C2=O)nc2ccccc21` (stereo not drawn): the displacement was -19.7%.

In the case of `O=C(NC1CCN(Cc2ccccc2)CC1)c1ccccc1F`, the displacement was found to be 2.4%.

For the compound `CCOC(=O)C1=C(c2ccccc2)N=c2s/c(=C\c3ccc(N(C)C)o3)c(=O)n2C1c1ccc(OC)c(OC)c1` (stereo not drawn), the displacement worked out at 10.7%.

For `COc1ccc(NC(=O)c2c(-c3ccccc3Cl)noc2C)c(OC)c1`, the displacement stood at 10.5%.

For `CCOC(=O)CN1C(=O)Nc2ccc(Br)cc2C1c1ccccc1` (stereo not drawn), the displacement is -5.8%.

Consider `COC(=O)CN1C(=O)/C(=C\c2cccs2)SC1=S`, for which the displacement is 0.6%.

Regarding `COc1cc(OC)cc(C(=O)Nc2cc3oc4ccccc4c3cc2OC)c1`, the displacement was -2.1%.

`CC(=O)NC(NCc1cccnc1)C(Cl)(Cl)Cl` (stereo not drawn): the displacement is -2%.

With `O=C(Nc1ccc(OC(F)(F)F)cc1)c1ccc(-c2cccc(Cl)c2)o1`, the displacement was determined as 28%.

On to `Cc1ccccc1C(=O)Nc1ccccc1C(=O)Nc1ccc(C(=O)O)cc1`, for which the displacement was found to be 2.5%.

Regarding `Cc1cc(OCC(=O)Nc2cccc(Br)c2)ccc1Cl`, the displacement is 11.6%.

Regarding `CCOc1ccc(/C=N/NC(=O)c2ccc(C(=O)N/N=C/c3ccc(OCC)c(OC)c3)o2)cc1OC`, the displacement was determined as 9.9%.

Regarding `COc1ccc(CCNS(=O)(=O)c2cccc([N+](=O)[O-])c2)cc1OC`, the displacement came out at 3.4%.

Regarding `Cc1ccc(NC2=C(Cl)C(=O)N(c3ccccc3Cl)C2=O)cc1C`, the displacement was -2%.

For `C=CCOc1ccccc1/C=N/N=C(N)N`, the displacement is -14%.

Turning to `COc1ccccc1C1CC(=O)NC(SCc2ccccc2)=C1C#N` (stereo not drawn), the displacement is -2.3%.

As for `FC(F)(F)c1cccc(NC(=S)Nc2ccccc2)c1`, the displacement amounted to 9.2%.

In the case of `CC(=O)Nc1ccn(-c2ccccc2)n1`, the displacement turned out to be 15%.

Regarding `CC(=O)NC(c1ccc(N(C)C)cc1)c1c(O)ccc2ccccc12` (stereo not drawn), the displacement turned out to be 0.9%.

Regarding `CC(=O)NC(=O)CC(=O)c1ccccc1`, the displacement was -1.5%.

On to `COc1ccc(N=C2CC(C)(C)CC(=O)/C2=C(O)\C=C\c2ccccc2)cc1`, for which the displacement came out at 7.8%.

Take `O=C1c2ccccc2C(=O)N1CC(=O)n1c2c(c3ccccc31)CCCC2`: the displacement was -4.4%.

With `O=C(/C=C/c1ccccc1[N+](=O)[O-])c1ccccc1`, the displacement was found to be 8.1%.

As to `O=C(NCCCN1CCOCC1)c1cccc(Cl)c1`, the displacement was found to be 9.8%.

Consider `c1ccc2c(c1)[nH]c1nc3nncn3nc12`, for which the displacement was found to be 6.2%.

With `Cc1c(CCO)sc[n+]1CC(=O)OC12CC3CC(CC(C3)C1)C2`, the displacement came out at 7.1%.

As to `CCc1cc2c(=O)c(-c3nc4ccccc4[nH]3)coc2c(CN2CCOCC2)c1O`, the displacement turned out to be 8.5%.

For the compound `O=C1c2cccc3cccc(c23)C(=O)N1CCOc1ccccc1`, the displacement was found to be 7.1%.

On to `O=C(Nc1ncccc1Cl)c1ccccc1F`, for which the displacement came to 0%.

On to `COc1ccc(OC)c(/C=C2/C=C(c3ccccc3)OC2=O)c1`, for which the displacement is -24.5%.

On to `COC(=O)c1cc(NC(=O)c2ccc(C(C)C)cc2)cc(C(=O)OC)c1`, for which the displacement turned out to be 10%.

In the case of `Cc1ccc(/C=N/Nc2nc(C(C)(C)C)cs2)o1`, the displacement stood at 0.6%.

As for `O=[N+]([O-])c1cccc(-n2nncc2C23CC4CC(CC(C4)C2)C3)c1`, the displacement was -9.6%.

With `COc1cccc(C(=O)N2CCNCC2)c1OC`, the displacement is -2.2%.

`O=C(NCC1CCCO1)c1nn2c(C(F)(F)F)cc(-c3ccco3)nc2c1Cl` (stereo not drawn): the displacement is 7.1%.

For `COc1ccc(CC(=O)N2N=C(C)CC2(O)c2ccc(Br)cc2)cc1OC` (stereo not drawn), the displacement is -8.3%.

As for `CCn1c2ccccc2c2cc(C=Nc3cccc4c(=O)[nH][nH]c(=O)c34)ccc21`, the displacement turned out to be 4.1%.
